{"source": "the supplement of paper PMC11417369", "note": "The list shows a part of the results.", "data": [{"test_system": "PfHDP1 homeodomain (GST-tagged)", "test": "gcPBM binding intensity (ln(normalized median fluorescence intensity)); higher = stronger DNA binding", "how_it_was_run": "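Binding of GST-tagged P. falciparum DNA-binding domains, expressed in E. coli and used at about 25 μg on average, was carried out for 1 h in 1× PBS containing 1% milk, 0.2 mg/ml BSA, 0.5% salmon testes DNA and 0.03% Triton X-100. The target was an Agilent 4 × 180k array of primer-extended double-stranded 36-bp intergenic genomic probes plus negative controls, read with Alexa488 anti-GST antibody at 488 nm. Binding intensity is the highest Masliner-normalised natural-log median intensity across replicate spots of either probe orientation.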", "values": [{"sequence": "AATACATCATTAAAATGTACATATATATATACATTA [XGTACX_site132]", "gcPBM binding intensity (ln)": 6.22}, {"sequence": "GAAATAAGGGTTATTTCACACATTGCATGTATTTTC [CACACA_site5752]", "gcPBM binding intensity (ln)": 6.3}, {"sequence": "ATATATATTAATTTTGTGCACAAATGGAAATGTTTG [GTGCAC_site9971]", "gcPBM binding intensity (ln)": 10.9}, {"sequence": "TGTGTTATATATAAAGAAAAAAAAAAAAAATATATA [CACACA_negctrl_site567]", "gcPBM binding intensity (ln)": 6.39}, {"sequence": "AAAAATTTAATTATTTGTACATAAAATACATTTCTG [XGTACX_site791]", "gcPBM binding intensity (ln)": 6.18}, {"sequence": "TATTCCTATATAAAGACACACATATGTAACTACGAT [CACACA_site4139]", "gcPBM binding intensity (ln)": 6.77}, {"sequence": "TATAGATAACAAAAGTGTACATGTTGTATACACATG [XGTACX_site3471]", "gcPBM binding intensity (ln)": 6.82}, {"sequence": "TATATATATAAACACACACACACACCCAAGCGTAGC [CACACA_site4210]", "gcPBM binding intensity (ln)": 7.61}, {"sequence": "AACAACTATTACTGCACACATTCTTACACTATATAA [CACACA_site654]", "gcPBM binding intensity (ln)": 9.28}, {"sequence": "TGTACAAATTATACTTCGAACGAAGGGCATACATAT [XGTACX_negctrl_site37]", "gcPBM binding intensity (ln)": 6.64}, {"sequence": "TATTTGTGTATTTTTACACACATTAATATATTTATA [CACACA_site7562]", "gcPBM binding intensity (ln)": 6.41}, {"sequence": "TATATATATATTATATGTACACATTTGTGAATTATT [XGTACX_site5848]", "gcPBM binding intensity (ln)": 8.34}, {"sequence": "AGGAGACTTAAAAAAAGTACAAAAAAAAAAAAAAGC [XGTACX_site1576]", "gcPBM binding intensity (ln)": 6.38}, {"sequence": "ACAGAAAAAAAACACACACACATAATATACATACAT [CACACA_site1932]", "gcPBM binding intensity (ln)": 6.86}, {"sequence": "TATACATATATAAATGCATGTTGATATTAATAGTTA [TGCATGCA_site639]", "gcPBM binding intensity (ln)": 6.53}, {"sequence": "TATTTTTTTTTCTTTTTATATATAATAATCTTCATT [GTGCAC_negctrl_site80]", "gcPBM binding intensity (ln)": 6.62}, {"sequence": "CGTTAAAGGGAATGTATACACACGTTTCTCTATGTT [CACACA_site1198]", "gcPBM binding intensity (ln)": 6.65}, {"sequence": "GTATATATGTATATATGTACATATATACATTTTGTT [XGTACX_site7320]", "gcPBM binding intensity (ln)": 6.85}, {"sequence": "TATATATTTAACAATCGTACATATTTACAAATATAA [XGTACX_site2131]", "gcPBM binding intensity (ln)": 6.31}, {"sequence": "TTATAACAACTGGAATGATTAACAATAAATATTAAA [CACACA_negctrl_site1723]", "gcPBM binding intensity (ln)": 6.09}, {"sequence": "TTAAATAATATTAAATGTACATATTATTATGATATA [XGTACX_site6189]", "gcPBM binding intensity (ln)": 6.13}, {"sequence": "ATGTTTGTCTATAGCTGTACCTATTTATAAAACGTA [XGTACX_site7157]", "gcPBM binding intensity (ln)": 6.67}, {"sequence": "TCATATTATAATGTGAGTACATATAATAAATAAGTT [XGTACX_site2470]", "gcPBM binding intensity (ln)": 6.48}, {"sequence": "GTAAAAATTTTAAATACATGCAAGCGATTAATATGA [TGCATGCA_site80]", "gcPBM binding intensity (ln)": 6.8}, {"sequence": "TTAATATGATATATATATATATATATATATATATAT [CACACA_negctrl_site683]", "gcPBM binding intensity (ln)": 9.37}, {"sequence": "ATTTAGAAAAATAAAACACACATATAGATGTAAATA [CACACA_site7853]", "gcPBM binding intensity (ln)": 6.38}, {"sequence": "ATATTTCTGTCAAGCACACATAATATTAAAATATGT [CACACA_site4330]", "gcPBM binding intensity (ln)": 6.43}, {"sequence": "TTTTATACATATTTTACACACTAAAATATACATATA [CACACA_site324]", "gcPBM binding intensity (ln)": 6.72}, {"sequence": "GAAGTATTTATTTATGCATGCAAATATACAAAAAAA [TGCATGCA_site975]", "gcPBM binding intensity (ln)": 6.85}, {"sequence": "ACATATATTTAAAAATGTACTTACATATATTTTTTA [XGTACX_site6050]", "gcPBM binding intensity (ln)": 5.85}, {"sequence": "ATAAAATAAATATTTTGTTATTTATTTAATCTAATA [XGTACX_negctrl_site404]", "gcPBM binding intensity (ln)": 5.98}, {"sequence": "TTTTTTTTTTCTGAAAGTACTAATTTCCTGGAGGAA [XGTACX_site759]", "gcPBM binding intensity (ln)": 5.78}, {"sequence": "TTATTATTATTACTAGTGCATTAATTATATATGTAA", "gcPBM binding intensity (ln)": 9.02}, {"sequence": "TAAATATTTTTAGATGCATGCAATAATTACCCAAAG [TGCATGCA_site636]", "gcPBM binding intensity (ln)": 7}, {"sequence": "TTATGTTGTAAATGCACACATACATAAACTCAGTTT [CACACA_site5639]", "gcPBM binding intensity (ln)": 10.5}, {"sequence": "ACCTCATAATATTTAACACACAAAATTAAATGTATG [CACACA_site6898]", "gcPBM binding intensity (ln)": 6.52}, {"sequence": "CCTGTAAATAAATATAAATACATATTTCTAATATAT [GTGCAC_negctrl_site21]", "gcPBM binding intensity (ln)": 6.52}, {"sequence": "AGGAGGTCAGTTCACAGTACCCAGGAAATCTACGGA [XGTACX_site2552]", "gcPBM binding intensity (ln)": 5.92}, {"sequence": "AAAAATAAAATAAAGAAGGAAAATAAAAAAATAAGG [CACACA_negctrl_site1811]", "gcPBM binding intensity (ln)": 6.87}, {"sequence": "AAACATAAGAGACACACACACATATATAAATAAATA [CACACA_site7674]", "gcPBM binding intensity (ln)": 6.75}, {"sequence": "AATTTCATAAATATAACTGAGAATAAATAAACAAAG [GTGCAC_negctrl_site146]", "gcPBM binding intensity (ln)": 6.69}, {"sequence": "TGAACACACGAGCACACACACACATCTATATTTATA [CACACA_site6607]", "gcPBM binding intensity (ln)": 7.6}, {"sequence": "TGGAATAATACGCGTACACACATATATATATTAATA [CACACA_site131]", "gcPBM binding intensity (ln)": 6.98}, {"sequence": "AGGTATCAAAAATATGCATGCAATATTTTATGTAAT [TGCATGCA_site1055]", "gcPBM binding intensity (ln)": 6.69}, {"sequence": "ATATAAAAATGTGTATGTACACACTTTATTTTTAAT [XGTACX_site5272]", "gcPBM binding intensity (ln)": 6.46}, {"sequence": "AAATTACAAATACAAACACACAAATGTTTTTCATTC [CACACA_site3552]", "gcPBM binding intensity (ln)": 6.27}, {"sequence": "TTTTTCTATAAAAAATGTACATATTTTATGAAGGAA [XGTACX_site821]", "gcPBM binding intensity (ln)": 6.5}, {"sequence": "TTAAAAAACCTTAGATGTACAGTTATATATAAAATA [XGTACX_site6688]", "gcPBM binding intensity (ln)": 6.37}, {"sequence": "ATCCTTTATTTTTTTTGTACATAAAAATAACTCGAG [XGTACX_site3885]", "gcPBM binding intensity (ln)": 6.94}, {"sequence": "CACCTTATAAATACTGCACACATAAAATATATATTA [CACACA_site8908]", "gcPBM binding intensity (ln)": 8.76}, {"sequence": "ACATATAAATATATTACACACACACTAAAAAAATAA [CACACA_site6209]", "gcPBM binding intensity (ln)": 7.01}, {"sequence": "CTTATCAAAAAAAAAGCATGCCACAGGCAAAAGGTA [TGCATGCA_site574]", "gcPBM binding intensity (ln)": 6.39}, {"sequence": "ATATATATATATATATGTACATATATACATATACAT [XGTACX_site2350]", "gcPBM binding intensity (ln)": 9.29}, {"sequence": "AAAAAAAAATTAATATATAAAAGGATATATATATAT [GTGCAC_negctrl_site449]", "gcPBM binding intensity (ln)": 8.92}, {"sequence": "GAATAATATATATATTGTACTTTTTATTTATATTAT [XGTACX_site3180]", "gcPBM binding intensity (ln)": 6.47}, {"sequence": "AAAATATAATATAATGCACACATAAAACAAAAAAAA [CACACA_site8989]", "gcPBM binding intensity (ln)": 9.76}]}]}
